The text below walks through data of PubChem BioAssay (NCI).

The test system of one experiment is HT29 colon. Kind of experiment: NCI-60 one-dose screen, 48 h (100 = growth as untreated, 0 = no growth, -100 = all killed). As to conditions: 2.5 mM.
The next experiment has as its system SNB-75 CNS. The experiment is described as above. To be noted: 2.5 mM.

A structure can be active in one record and inactive in another.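 Step 1: grow cells in 96-well plates. Step 2: add test compound at a single concentration. Step 3: incubate 48 h. Step 4: record percent growth.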 Some entries of the source have several records that differ or are many. Only these are listed. Rule for the calls: active = growth percent below 10; inactive = the rest. The source may hold further records. The screen tested this drug many times, at the concentration stated with the values; each value is one run. Signs of the kind (2×) stand for listed records that agree.

Consider `O=c1[nH]cc(F)c(=O)[nH]1`, for which the growth entry in the experiment with HT29 colon (runs of 1995) was “inactive: 23.9, 15.3, 15.8, 14.9, 15.4, 12.7, 13.5, 17.9, 14.4, 23.6, 13.9, 18.4, 22.7, 19.6, 13.8 (2×), 18.5, 16.8, 15.1, 12.9, 92.2, 10.3, 16.9, 10.6, 15.9, 16% and active: 6.03, 3.56, 7.46, -6.98, 2.68, 5.02, 5.06, 6.43, 0.173, 9.68, -3.72, 5.93, 6.05%”; in the experiment on HT29 colon (runs of 1996), “active: 9.43, -17.5, 9.28, 8.79 (2×), 5.57, 6.85, 6.08, 7.47, 9.96, -3.82, 4.53, 2.84, 5.84, -23.5% and inactive: 11.8, 17.1, 10.3, 12.3, 13.3, 17.8, 10.4 (2×), 10.1, 11.1, 16.6, 18.7 (2×), 15.8, 15.7, 11.2, 10.5, 10.8, 13.8, 17, 13, 12.5, 14.6, 14.9, 13.9, 33.6, 24.1, 16, 15.9, 22.6, 13.7, 19.5, 29, 23, 20.2, 25.7, 24.4, 21.1%”; in the experiment on HT29 colon (runs of 1997) it was “inactive: 20.6, 18.6, 18.7, 33.5, 10.1, 23.4, 19.9 (2×), 12.4 (2×), 14.9, 14.7, 16.8, 13.2, 13.8 (2×), 11.4, 14.4, 22.1, 19.1, 22.7, 20.3, 24.3, 17.7, 17.8, 18.8, 18.4, 112, 14.1, 24.1, 16.2, 25, 20.5, 11% and active: 5.12, 9.7, -8.64, 9.69, -1.01, 4.09, 8.39, 4.12%”; in the experiment with HT29 colon (runs of 1998), “inactive: 22.9, 18.3, 25.9, 25.1, 22.1, 23.7, 22 (2×), 13, 23.6, 35.8, 11.3 (2×), 16.9, 19.7, 13.5% and active: 7.2, 6.61, -25.5, 7.88, 2.43, 5.04, -2.47, -9.73%”; with HT29 colon (runs of 1999), “inactive: 23.8, 18.5, 11.9, 10.6, 10.3, 13.7% and active: -75.1, 1.92, 1.22, -33.6, 0.178, 1.88, -20.8, -33.2, 0.176, -100, 1.58%”; with HT29 colon (runs of 2000) it was “active: -37.9, 0.279, 0.869, -24.3%”. The growth entry in the experiment on SNB-75 CNS (runs of 1991) was “inactive: 56.7, 38.1, 42.4, 24.4, 10.2, 41.2, 32.9, 32.8, 34.3, 62, 30.7, 26.6, 33.9% and active: -19.2, -10.7, -1.11, -9.3, -1.03%”; in the experiment with SNB-75 CNS (runs of 1992) it was “active: -2.39, -0.862, -5.23, -17.6, -5.07, 7.52, -6.3, -1.29, -3.1, -11, 7.86, -5.42, -7.34, 2.57, -22.6, -1.02, -8.86, -10.9, 5.72, 3.7, 9.8, 6.13, -5.65, -5.48, -19.9, -5.49, 7.28, 1.9% and inactive: 26.9, 35.5, 22.5, 45.8, 16.4, 22.8, 23.3, 85, 16.1, 19.2, 25.6, 63.7, 11.4, 24.8, 36.5, 50.6, 33, 48.1, 39.6, 37.4, 59.2, 45.1, 17.4, 11.2, 19 (2×), 14.8, 10.6, 42.5, 26.6, 42.2, 68.2, 23.8, 59.5, 36, 47.4, 22.4 (2×), 40.7, 19.6, 34.8, 27.4 (2×), 36.7, 39, 29.7 (2×), 25, 29.9, 33.6, 81.2, 33.5, 32.1, 20.6, 32.8, 20.1, 21.6, 97.2, 54.4, 26.5, 13.5, 27.6, 26.3, 15.1, 42.1, 37, 13.6, 10.5, 21.8, 66.1, 15.5, 57.2, 18.4, 141, 67.1, 15.2, 38.5, 22.3, 42, 15.7, 20.4, 63.3, 32.9%”; with SNB-75 CNS (runs of 1993), “inactive: 57, 17.4, 41.4 (2×), 14.4, 42.2, 22.6, 21.7, 15.4, 35.6, 35.4, 29, 37.4, 17.2, 23.4, 27.3, 38.7 (2×), 34.6, 25.7, 38.1, 29.6 (2×), 11.4, 23.8, 27.9, 82.8, 27.8, 57.8, 15.2, 88.7, 15.7, 31.6, 34.1% and active: -3.21, -0.603, 0.997, 8.2, 4.88, -6.49, -15.6%”; in the experiment with SNB-75 CNS (runs of 1994) it was “inactive: 22.7, 19.2, 34.1, 29.9, 42, 36, 31.1, 20.4, 46.1, 15.9, 32, 65.7, 53.5, 54.6, 26, 35.5, 18.4, 51.8, 13.9, 33.1, 33.5, 40.7, 20.9% and active: -19.7, -1.99, -3.6, -0.163%”; in the experiment on SNB-75 CNS (runs of 1995), “inactive: 39.9, 37.5, 66.6, 40.7, 22.1, 21, 48.5, 13.4, 17, 45.9, 27.5, 12, 32.7, 30.5, 34.3, 25.4 (2×), 34.4, 54, 21.8, 35.2, 51.7, 53.6, 41.9, 44, 72.3, 38.4, 16.9, 63.5, 50.8% and active: 0.899, -14.7, -6.11, -5.69, -15.1, -6.66%”; in the experiment with SNB-75 CNS (runs of 1996), “inactive: 24.6, 41.9, 21.8, 21.3, 27.9, 85.6, 27.7 (2×), 28.9, 35.6, 48.2, 44.5, 43.5, 27.6, 29.5, 20.4, 34.4, 43.8, 19.8, 23.9, 75.3, 35.4, 68.3, 28.1, 26.1, 43.6, 23.1, 46.6, 39.6, 30, 37.5, 19.5, 22.8, 24.5, 40, 46.4, 34.5, 32, 70.4, 81.1, 64.4, 17.4, 37.6, 26.8, 67.4, 33.8, 45.3, 64.9, 33.3, 36.6% and active: -9.83, -4.29, -2.25, -19.3, 0.297%”. For the same compound, the growth entry with SNB-75 CNS (runs of 1997) is “inactive: 46.5, 63.6, 16.6, 65 (2×), 42.3, 19.5, 65.8, 31.7, 30.6, 23.4, 37.4, 67.5, 14.6, 11.1, 42.5, 34.8, 14.3, 16.1, 21.2, 13.9, 36.1, 41.7, 31, 45, 24.7, 36.6, 31.1% and active: -0.433, 1.92, 6.39, 4.42, 6.25, 4.34, -8.19%”; in the experiment with SNB-75 CNS (runs of 1998), “active: -8.79, -19.7, 6.28, -2.91% and inactive: 38.2, 43.4, 23.3, 54, 23.6, 18.3, 35.1, 30, 46.7, 27, 25.6, 40.2, 28.1, 14.9, 38.4%”; in the experiment with SNB-75 CNS (runs of 1999), “active: -17.1, -0.578, -13.8, 5.31, 3.29, 1.54, -14.8, -25.5, 4.68% and inactive: 33.8, 54.5, 27.8, 26.2%”.
